{"source": "patent US20230203471A1", "about": "“METHOD AND PLATFORM FOR DISRUPTING INTRACELLULAR MICROTUBULES” (National Tsing Hua University, priority 2021, published 2023)", "key": {"[1]": {"molecular_target": "intracellular microtubules (MTs)"}, "[2]": {"molecular_target": "MT-binding domain of ensconsin-cyan fluorescent protein-FKBP-rapamycin binding domain (EMTB-CFP-FRB) (Artificial Sequence)", "sequence (chain, as listed by the source)": "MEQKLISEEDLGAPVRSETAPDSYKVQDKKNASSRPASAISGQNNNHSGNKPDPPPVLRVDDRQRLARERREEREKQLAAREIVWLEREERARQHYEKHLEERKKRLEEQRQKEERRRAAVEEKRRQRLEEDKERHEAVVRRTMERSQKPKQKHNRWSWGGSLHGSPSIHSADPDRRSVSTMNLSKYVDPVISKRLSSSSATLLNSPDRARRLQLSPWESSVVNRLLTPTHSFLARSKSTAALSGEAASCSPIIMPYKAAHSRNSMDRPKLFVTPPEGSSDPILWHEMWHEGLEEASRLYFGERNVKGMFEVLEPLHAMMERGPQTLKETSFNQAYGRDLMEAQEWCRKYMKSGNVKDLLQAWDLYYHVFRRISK", "experiment": "FRET live-cell imaging in co-transfected HeLa cells, 100 nM rapamycin"}}, "data": [{"binder": "dNSpastin3Q-YFP-FKBP (enzyme) MESGAVPKRKDPLTHASNSLPRSKTVLKSGSAGLSGHHRAPSCSGLSMVSGARPGPGPAATTHKGTPKPNRTNKPSTPTTAVRQQQDLKNFRNVDSNLANLIMNEIVDNGTAVKFDDIAGQELAKQALQEIVILPSLRPELFTGLRAPARGLLLFGPPGNGKTMLAKAVAAESNATFFNISAASLTSKYVGEGEKLVRALFAVARELQPSIIFIDEVDSLLCERREGEHDASRRLKTEFLIEFDGVQSAGDDRVLVMGATNRPQELDEAVLRRFIKRVYVSLPNEETRLLLLKNLLCKQGSPLTQKELAQLARMTDGYSGSDLTALAKDAALGPIRELKPEQVKNMSASEMRNIRLSDFTESLKKIKRSVSPQTLEAYIRWNKDFGDTT[about 100 residues omitted]", "values": [{"measurement": "half time of MT disruption (MT filament area)", "setting": "[1]", "value": 11.1, "unit": "min"}, {"measurement": "T½ of translocation", "setting": "[2]", "value": 60.4, "unit": "s"}]}]}
